Test results reported in paper PMC4336329 (PLoS ONE, 2015).
Out of some 310,000 compounds screened, about 14,000 (4.5%) showed an effect of 50% or more. The effect is printed as a negative number. This is one part of the list.

Target: human ether-à-go-go-related gene (hERG) potassium channel (human, UniProt Q12809)
Assay: primary screen, population patch clamp on CHO cells stably expressing hERG
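Note: peak tail current of the secondary pulse compared with the same well before compound.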

Sequence of human ether-à-go-go-related gene (hERG) potassium channel (Q12809 whole entry, looked up): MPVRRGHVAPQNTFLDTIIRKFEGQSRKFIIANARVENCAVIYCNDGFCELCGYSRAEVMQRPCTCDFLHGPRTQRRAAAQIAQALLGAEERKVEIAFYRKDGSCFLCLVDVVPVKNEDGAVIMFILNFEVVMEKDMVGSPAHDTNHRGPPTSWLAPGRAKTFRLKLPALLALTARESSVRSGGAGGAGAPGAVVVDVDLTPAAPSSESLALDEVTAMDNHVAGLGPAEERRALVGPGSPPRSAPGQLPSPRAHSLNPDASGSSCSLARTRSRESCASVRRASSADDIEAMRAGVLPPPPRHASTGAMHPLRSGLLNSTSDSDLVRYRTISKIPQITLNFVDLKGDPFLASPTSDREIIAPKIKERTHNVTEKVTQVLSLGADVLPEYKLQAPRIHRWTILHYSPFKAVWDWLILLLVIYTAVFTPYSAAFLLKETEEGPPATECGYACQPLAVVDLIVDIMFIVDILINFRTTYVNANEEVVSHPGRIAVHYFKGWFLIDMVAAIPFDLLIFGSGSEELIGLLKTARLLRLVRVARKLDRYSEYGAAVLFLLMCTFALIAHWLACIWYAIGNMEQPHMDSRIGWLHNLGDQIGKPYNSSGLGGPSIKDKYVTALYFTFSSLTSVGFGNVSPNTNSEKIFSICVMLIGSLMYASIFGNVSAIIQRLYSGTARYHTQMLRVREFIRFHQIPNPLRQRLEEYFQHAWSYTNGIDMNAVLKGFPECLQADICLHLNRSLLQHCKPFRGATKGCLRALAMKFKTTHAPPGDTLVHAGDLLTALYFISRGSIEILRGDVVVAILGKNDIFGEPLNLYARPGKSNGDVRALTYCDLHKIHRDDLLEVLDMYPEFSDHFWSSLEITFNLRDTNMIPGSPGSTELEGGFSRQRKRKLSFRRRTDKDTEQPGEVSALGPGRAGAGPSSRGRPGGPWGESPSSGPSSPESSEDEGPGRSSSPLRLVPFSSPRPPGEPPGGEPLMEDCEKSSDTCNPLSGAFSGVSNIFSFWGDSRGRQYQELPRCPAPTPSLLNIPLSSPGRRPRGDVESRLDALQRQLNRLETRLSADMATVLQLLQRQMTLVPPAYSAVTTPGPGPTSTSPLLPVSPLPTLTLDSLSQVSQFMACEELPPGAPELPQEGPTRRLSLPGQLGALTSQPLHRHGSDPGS

SMILES	hERG current change (%, negative = inhibition) at 10uM [%]
COc1cccc(CN2CCN(C(=O)Cc3ccccc3OC)CC2)c1	20.2
COc1ccc(OCCSc2nnc(CCNC(=O)c3ccc(Cl)c(Cl)c3)n2C)cc1	-3.13
O=C(CCNC(=O)c1ccc(Br)cc1)NC1CCCCCC1	-5.25
O=C(Nc1ccccc1)N1N=C(c2ccc(F)cc2)CC1c1ccc(F)cc1 (centres unmarked)	-10.1
Cc1ccc(NC(=O)COc2ccccc2)c(NC(=O)c2ccco2)c1	-9.89
OCCNC(=S)Nc1cc(Cl)cc(Cl)c1	12.4
O=C(/C=C/c1ccco1)Nc1cccnc1Cl	2.52
O=C(Nc1c(Cl)cc(Cl)cc1C(=O)NCCN1CCOCC1)c1cccc([N+](=O)[O-])c1	-13.9
c1ccc2c(NC3CCCC3)nnc(NC3CCCC3)c2c1	-74.9
O=C(/C=C/c1ccccc1)Nc1ccc(S(=O)(=O)N2CCOCC2)cc1	4.08
COc1ccc(-c2nc(CS(=O)CC(=O)NCc3ccc4c(c3)OCO4)c(C)o2)cc1 (centres unmarked)	-40
CCSc1nnc(NC(=O)CSC2=NN3CCCC(=O)N=C3S2)s1	0.749
COc1ccc2[nH]cc(C(=O)N3CCCCC3)c(=O)c2c1	8.17
NC(=O)CC(NC(=O)c1ccccc1)c1ccc(NCC2CC2)c([N+](=O)[O-])c1 (centres unmarked)	-35.3
O=C(O)C(O)C(O)c1nc2ccccc2[nH]1 (centres unmarked)	13.8
CN1CCc2c(sc3c2c(=O)n(-c2ccccc2)c2nnc(SCc4ccc(Cl)cc4)n32)C1	-2.08
COc1ccc(OC)c(NC=C2C(=O)OC(C)(C)OC2=O)c1	0.742
Cl.N[C@@H](CO)c1nnc([C@H](CCC(=O)O)NC(=O)C2CCNCC2)o1	13.2
Cc1[nH]c2ccccc2c1C(=O)NS(=O)(=O)Nc1ccc(F)cc1	19
O=[N+]([O-])c1ccc(Cl)c(/C=N/N2CCN(Cc3ccccc3Cl)CC2)c1	-16.6
Cc1cc(C)c(NC(=O)CSc2nc(=O)n3cc(C)ccc3n2)c(C)c1	10.8
O=C(O)C1C2CCC(O2)C1C(=O)Nc1ccccc1Br (centres unmarked)	5.56

SMILES	hERG current change (%, negative = inhibition) at 10uM [%]
COc1ccc(NC(=O)CSc2nnc3ccc(-c4ccncc4)nn23)cc1	-30.9
c1ccc2cc(OCCOCCOc3ccc4ccccc4c3)ccc2c1	-5.55
COc1ccc(OCC(O)CN2CCc3ccccc3C2)cc1.Cl (centres unmarked)	-33.1
O=C(CSc1nnc(C23CC4CC(CC(C4)C2)C3)o1)Nc1ccc(N2CCOCC2)c(Cl)c1	16.3
Cc1ccc(OCc2ccc(C(=O)NN)o2)cc1C	6.24
CCOc1ccc(CCNC(=O)CN2C(=O)c3cccnc3Oc3ccc(C)cc32)cc1OCC	-9.55
CCN(CC(=O)Nc1ccc2c(c1)OCCO2)C(=O)CCOc1ccccc1	-1.92
Cc1cc(=O)oc(C)c1C(=O)N1CCN(C)CC1	10
O=C(Nc1ccc(F)cc1)c1ccccc1S(=O)(=O)c1ccccc1[N+](=O)[O-]	-17.5
Cc1cc(C)c(S(=O)(=O)N2CCC(C(=O)NCc3ccncc3)CC2)c(C)c1	-14
CCC1CCCCN1CCCNC(=O)CN1C(=O)COc2ccc(S(=O)(=O)N3CCOCC3)cc21 (centres unmarked)	-3.51
COc1ccc(N=c2cc(-c3ccc(O)cc3)oc3ccccc23)cc1.Cl	-42.8
COc1ccccc1NC(=S)NNC(=O)c1ccncc1	24.2
Cc1ccc(-c2cc(C(=O)Nc3ccccc3C)c3ccccc3n2)o1	9.38
CCCCCCCn1c(=O)c(C(=O)OC)c(N)c2ccccc21	-9
O=C(c1cccc(-n2cccc2)c1)N1CCN(S(=O)(=O)c2ccccc2)CC1	-32
CCNC(=O)c1ccc(OCC(=O)Nc2ccc(F)cc2)c(OC)c1	-46
O=c1nc(SCc2c(F)cccc2Cl)nc(-c2ccccc2)[nH]1	12.9
CC(C)NC(=O)c1ccc2c(c1)S(=O)(=O)c1ccccc1C2=O	8.77
CCCOP(=O)(c1ccc(N(C)C)cc1)C(O)c1cc(OC)ccc1OC (centres unmarked)	0.331
COc1cccc(NC(=O)CCc2nc(-c3ccccc3F)no2)c1	-0.885
O=C(O)c1ccc(N/N=C/c2ccc3nccnc3c2)cc1	-4.73
